# Test results reported in the supplement of paper PMC11369174, “Proteome-scale characterisation of motif-based interactome rewiring by disease mutations” (Molecular Systems Biology, 2024).
# This is one part of the list. This is a noisy data set.
# T1: EPHA3_Pkinase__P29320_606_947
# T1 chain: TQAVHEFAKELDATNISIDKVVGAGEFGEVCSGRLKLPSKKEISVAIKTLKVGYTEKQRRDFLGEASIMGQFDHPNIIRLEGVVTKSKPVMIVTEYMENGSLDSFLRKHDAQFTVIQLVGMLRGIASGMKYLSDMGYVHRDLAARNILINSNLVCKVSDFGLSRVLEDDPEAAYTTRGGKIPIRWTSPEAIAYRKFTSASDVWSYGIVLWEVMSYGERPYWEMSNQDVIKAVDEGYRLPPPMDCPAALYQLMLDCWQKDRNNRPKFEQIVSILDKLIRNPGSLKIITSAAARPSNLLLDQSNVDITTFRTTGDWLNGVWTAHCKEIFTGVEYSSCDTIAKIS
# T2: CLTC_Clathrin-propeller__Q00610_1_364
# T2 chain: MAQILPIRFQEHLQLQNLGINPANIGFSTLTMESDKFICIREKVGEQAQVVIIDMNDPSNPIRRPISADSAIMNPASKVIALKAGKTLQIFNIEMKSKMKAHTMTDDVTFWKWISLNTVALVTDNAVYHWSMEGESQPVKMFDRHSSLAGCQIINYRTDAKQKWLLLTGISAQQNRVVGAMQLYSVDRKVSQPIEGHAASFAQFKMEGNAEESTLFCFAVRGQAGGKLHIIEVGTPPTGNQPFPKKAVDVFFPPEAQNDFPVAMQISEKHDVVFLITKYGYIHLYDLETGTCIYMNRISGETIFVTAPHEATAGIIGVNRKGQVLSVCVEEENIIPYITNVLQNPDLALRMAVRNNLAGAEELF
# T3: GEF_Sec7__Q9Y6D5_639_829
# T3 chain: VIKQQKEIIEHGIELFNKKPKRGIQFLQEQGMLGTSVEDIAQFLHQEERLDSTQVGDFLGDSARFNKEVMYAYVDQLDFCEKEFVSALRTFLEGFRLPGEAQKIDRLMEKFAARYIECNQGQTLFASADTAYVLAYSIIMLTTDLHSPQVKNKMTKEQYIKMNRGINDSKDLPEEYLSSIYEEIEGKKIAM
# T4: PEX14_Pex14__O75381_16_84
# T4 chain: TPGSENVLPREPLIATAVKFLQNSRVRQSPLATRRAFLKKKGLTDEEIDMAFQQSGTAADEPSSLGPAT
# T5: G3BP2_NTF2_1_Q9UN86_1_139
# T5 chain: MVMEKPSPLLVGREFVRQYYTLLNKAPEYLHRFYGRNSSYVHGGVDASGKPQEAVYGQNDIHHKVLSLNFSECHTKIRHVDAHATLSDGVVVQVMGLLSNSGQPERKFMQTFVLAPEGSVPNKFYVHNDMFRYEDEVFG
# T6: GGA1_VHS__Q9UJY5_1_157
# T6 chain: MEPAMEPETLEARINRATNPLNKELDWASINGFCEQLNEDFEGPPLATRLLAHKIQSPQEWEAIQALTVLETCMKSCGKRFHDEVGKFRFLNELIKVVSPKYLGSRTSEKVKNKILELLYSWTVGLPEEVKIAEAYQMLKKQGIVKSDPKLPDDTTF
# T7: GGA3_VHS__Q9NZ52_1_166
# T7 chain: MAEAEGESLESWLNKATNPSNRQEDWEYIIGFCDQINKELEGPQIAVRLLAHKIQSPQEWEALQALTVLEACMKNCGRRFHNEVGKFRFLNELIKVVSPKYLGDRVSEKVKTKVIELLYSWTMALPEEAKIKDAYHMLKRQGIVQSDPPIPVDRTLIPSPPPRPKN
# T8: PDZK1_PDZ_2_Q5T2W1_132_224
# T8 chain: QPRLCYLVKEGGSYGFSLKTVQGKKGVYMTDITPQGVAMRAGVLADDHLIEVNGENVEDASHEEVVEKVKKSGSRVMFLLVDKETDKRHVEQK
# T9: RDX_FERM_1_P35241_5_295
# T9 chain: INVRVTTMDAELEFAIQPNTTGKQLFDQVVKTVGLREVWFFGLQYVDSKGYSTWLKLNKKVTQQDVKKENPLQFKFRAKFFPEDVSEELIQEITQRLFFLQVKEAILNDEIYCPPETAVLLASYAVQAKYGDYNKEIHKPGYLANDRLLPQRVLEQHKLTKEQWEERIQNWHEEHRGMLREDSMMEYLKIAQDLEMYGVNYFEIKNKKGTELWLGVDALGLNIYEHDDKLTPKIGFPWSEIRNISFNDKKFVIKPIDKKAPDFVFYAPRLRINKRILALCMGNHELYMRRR
# Key:
# Test in all cases: mutation enrichment score (mutant vs wild-type peptide binding to bait); baits are purified protein domains named by gene / domain / UniProt id / residues; peptides come from disordered regions of human proteins; higher = mutation enhances binding relative to wild type
# [1] = biological target: CREBBP_KIX__Q92793_587_673; conditions: number of wild-type / mutant comparisons summed (bounds the score): 6; paper call: no_effect; wild-type window: …
# [2] = biological target: CREBBP_NCBD__Q92793_2062_2109; conditions: number of wild-type / mutant comparisons summed (bounds the score): 5; paper call: no_effect; wild-type window: …
# [3] = biological target: T1, EPHA3_Pkinase__P29320_606_947; conditions: number of wild-type / mutant comparisons summed (bounds the score): 12; paper call: no_effect; wild-type window: …
# [4] = biological target: MDM2_p53-binding-domain__Q00987_17_125; conditions: number of wild-type / mutant comparisons summed (bounds the score): 8; paper call: no_effect; wild-type window: …
# [5] = biological target: T2, CLTC_Clathrin-propeller__Q00610_1_364; conditions: wild-type window: …
# [6] = biological target: USP7_MATH-TRAF__Q93009_53_206; conditions: number of wild-type / mutant comparisons summed (bounds the score): 5; paper call: no_effect; wild-type window: …
# [7] = biological target: CBX3_CHROMO-Shadow__Q13185_109_173; conditions: paper call: no_effect, wild-type window: …
# GEF_Sec7__Q9Y6D5_639_829 = biological target: T3, GEF_Sec7__Q9Y6D5_639_829; conditions: number of wild-type / mutant comparisons summed (bounds the score): 6; paper call: no_effect; wild-type window: …
# [8] = biological target: T4, PEX14_Pex14__O75381_16_84; conditions: number of wild-type / mutant comparisons summed (bounds the score): 12; paper call: no_effect; wild-type window: …
# [9] = biological target: T5, G3BP2_NTF2_1_Q9UN86_1_139; conditions: number of wild-type / mutant comparisons summed (bounds the score): 12; paper call: enhanced; wild-type window: …
# GGA1_VHS__Q9UJY5_1_157 = biological target: T6, GGA1_VHS__Q9UJY5_1_157; conditions: number of wild-type / mutant comparisons summed (bounds the score): 10; paper call: no_effect; wild-type window: …
# GGA3_VHS__Q9NZ52_1_166 = biological target: T7, GGA3_VHS__Q9NZ52_1_166; conditions: number of wild-type / mutant comparisons summed (bounds the score): 6; paper call: no_effect; wild-type window: …
# [10] = biological target: T8, PDZK1_PDZ_2_Q5T2W1_132_224; conditions: number of wild-type / mutant comparisons summed (bounds the score): 6; paper call: no_effect; wild-type window: …
# RDX_FERM_1_P35241_5_295 = biological target: T9, RDX_FERM_1_P35241_5_295; conditions: number of wild-type / mutant comparisons summed (bounds the score): 6; paper call: no_effect; wild-type window: …
# [11] = number of wild-type / mutant comparisons summed (bounds the score): 12, paper call: no_effect
# Sequence of USP7_MATH-TRAF__Q93009_53_206 (chain, as listed by the source): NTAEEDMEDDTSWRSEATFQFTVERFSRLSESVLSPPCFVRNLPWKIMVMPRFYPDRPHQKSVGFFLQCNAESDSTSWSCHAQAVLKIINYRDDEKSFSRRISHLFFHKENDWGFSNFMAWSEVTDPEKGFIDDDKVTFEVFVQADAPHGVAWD
binder,measurement,setting,value
YEDALYTVLHRLGHPEPNHVMEASELLRYLQEAFHVEPEEH [T76M T76M],mutation enrichment score,[1],5.9
same,mutation enrichment score,[2],4.8
same,mutation enrichment score,[3],2
same,mutation enrichment score,[4],-1
QSLTMTAEQKESELIELRETTEMLKAQNSAAQAAIQGALNG [I1634T I1634T],mutation enrichment score,"[5]; number of wild-type / mutant comparisons summed (bounds the score): 6, paper call: enhanced",6
same,mutation enrichment score,[6],-2
APPELVPMKVKEPEPQYFRFKGVWLTETGMALLRNLTMSPL [E1588K E1588K],mutation enrichment score,[7]; number of wild-type / mutant comparisons summed (bounds the score): 12,4.3
same,mutation enrichment score,GEF_Sec7__Q9Y6D5_639_829,-5.9
same,mutation enrichment score,[8],-4
PSGGGGGGGQQRAGDWKCPNLTCENMNFSWRNECNQCKAPK [P431L P431L],mutation enrichment score,[7]; number of wild-type / mutant comparisons summed (bounds the score): 6,2
DCTPSLKSLVATGNLLDLEEIAKAPLSTVSANTTNMDEVPR [T218I T218I],mutation enrichment score,[5]; [11],-3
DDEPDHGPLGAPEGDHDLLTFGQCQMNFPLGDILIFIEHKR [C48F C48F],mutation enrichment score,"[5]; number of wild-type / mutant comparisons summed (bounds the score): 12, paper call: enhanced",12
same,mutation enrichment score,[9],10
LEGLPPSWYKVFDPSCGLPYCWNADTDLVSWLSPHDPNSVV [Y65C Y65C],mutation enrichment score,[5]; [11],0.94
same,mutation enrichment score,GGA1_VHS__Q9UJY5_1_157,2.3
same,mutation enrichment score,GGA3_VHS__Q9NZ52_1_166,-5
same,mutation enrichment score,[10],-6
same,mutation enrichment score,RDX_FERM_1_P35241_5_295,2
